# From PubChem BioAssay AID504832 (National Center for Advancing Translational Sciences (NCATS), 2011)
# Screen size: about 310,000 compounds; about 18,000 (5.8%) were called active. Inconclusive results, whose numbers are uncertain, are shown with a selection of clear calls. Calls come from the whole dose curve; as a rule, active = well fitted inhibition curve with a large enough effect; inconclusive = small, poorly fitted or top-dose-only effect, or another doubt; inactive = no such curve, though single readings can be large or run the other way. No potency is given beside an inconclusive call; the fits are too rough.
# Assay: Primary qHTS for delayed death inhibitors of the malarial parasite plastid, 48 hour incubation
# Settings: P. falciparum luciferase growth in erythrocytes; series mostly up to 28.7 µM; activity change, negative = inhibition: at the top concentration
# Summary of the method: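 Luciferase-expressing P. falciparum in infected erythrocytes (2% hematocrit, 0.1% parasitemia final) in RPMI 1640/0.5% Albumax were exposed to compound for 48 hours at 37 C, 5% CO2; growth read as luminescence.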
# % is set by controls: 0 for no effect and ±100 for the full control effect; potency is the fitted concentration of half-maximal effect; tags give direction and shape of the fitted curve.
SMILES,Potency,"activity change, negative = inhibition"
CCOC(=O)c1[nH]c(C)c(C(=O)NCc2ccc(Cl)cc2)c1C,"inconclusive [inhibitor, partial curve]",–
O=C(Nc1ccc([N+](=O)[O-])cc1)c1cncc(Br)c1,"inconclusive [inhibitor, single point]",–
COc1ccccc1Cn1c(=S)[nH]c2cc(C(=O)NC(C)C)ccc2c1=O,"inconclusive [inhibitor, partial curve, poor fit]",–
COc1ccc(NC(=O)CN(C)C(=O)COc2ccccc2Cc2ccccc2)cc1,active: 9.28 µM,–
Cc1ccc(C(=O)c2oc3ccccc3c2NC(=O)c2cc(-c3ccccc3O)n[nH]2)cc1,active: 1.47 µM,–
COc1ccc(NC(=O)c2ccc([N+](=O)[O-])o2)cc1,"inconclusive [inhibitor, partial curve, poor fit]",–
C#Cc1ccc(CN2CCC(C(=O)Nc3ccc(Oc4ccccc4)nc3)CC2)cc1,"inconclusive [inhibitor, partial curve]",–
CCn1cc(C2=NOC(C(=O)Nc3cc(C)nn3-c3ccccc3)C2)c(C)n1 (stereo not drawn),–,inactive: -15.1%
C/C(=N\NC(=O)c1ccc([N+](=O)[O-])cc1Cl)c1ccccc1,–,inactive: 0%
COc1ccc2c(C)cc3n[nH]c(=S)n3c2c1,–,inactive: 5.16%
Cc1ccc(S(=O)(=O)N(C)c2ccc(C(=O)NCC3(N(C)C)CCCCC3)cc2)cc1,"inconclusive [inhibitor, single point]",–
Fc1ccc(C(OCCN2CCCC2)c2ccc(F)cc2)cc1,"inconclusive [inhibitor, partial curve]",–
Cc1cc(C)c(CN2CCC(CO)(CCOc3ccccc3)CC2)cc1C,active: 6.57 µM,–
CCCOc1ccc(/C=N/NC(=O)CN2CCCCC2)cc1OCC,–,inactive: -19%
O=C(NCCCN1CCCCCC1)c1ccc2c(c1)NC(=O)C(N1CCOCC1)S2 (stereo not drawn),"inconclusive [inhibitor, partial curve, poor fit]",–
O=C(NCC(c1ccc(F)cc1)N1CCOCC1)c1ccc(Br)o1 (stereo not drawn),–,inactive: -11.7%
C=C(C)COc1ccc2c(CC)cc(=O)oc2c1C,–,inactive: 10.1%
Clc1cc(Br)ccc1OCCOCCN1CCCC1,"inconclusive [inhibitor, partial curve]",–
CCc1cccc(C)c1NC(=O)CSc1nnc(CCCOc2ccc(Cl)cc2Cl)n1C,"inconclusive [inhibitor, partial curve]",–
Cc1ccc(/C=N\Nc2nc3ccc(Cl)cc3[nH]2)o1,active: 2.62 µM,–
CN(C)S(=O)(=O)c1cc(NC(=O)CSc2ncc(C(F)(F)F)cc2Cl)ccc1Cl,–,inactive: -28.4%
COC(=O)C1=C(c2cccc(OCc3ccccc3)c2)C[C@@H]2CC[C@H]1N2C(=O)NCc1ccc(C(F)(F)F)cc1,active: 13.1 µM,–
Cn1c(SCC(=O)NCc2cccs2)nnc1-c1cccs1,–,inactive: -5.42%
Cc1ccc2c(c1)nnn2C1CCN(C(=O)C2CCCCC2)CC1,"inconclusive [inhibitor, full curve, poor fit]",–

SMILES,Potency,"activity change, negative = inhibition"
O=c1nc2c(O)cccn2c2c1c(=O)[nH]c1ccccc12,–,inactive: -0.44%
O=C(CSc1nc2ccccc2n1Cc1ccccc1)N/N=C/c1ccco1,"inconclusive [inhibitor, single point]",–
Cc1oc(C(C)(C)C)cc1C(=O)N1CCN(c2ccc(C(F)(F)F)cn2)CC1,"inconclusive [inhibitor, partial curve, poor fit]",–
COc1nnc(-c2ccc(C(=O)N3C[C@@H]4C[C@H](C3)c3cccc(=O)n3C4)cc2)c2ccccc12,"inconclusive [inhibitor, single point]",–
COc1ccc(CCNC(=O)c2c(N)n(CCN3CCOCC3)c3nc4ccccc4nc23)cc1OC,active: 9.28 µM,–
CCn1nc(NC(=O)C(C)(C)C)c2cc3cccc(C)c3nc21,"inconclusive [inhibitor, single point]",–
Nc1nc2ccc(-c3nc4ccccc4o3)cc2s1,–,inactive: 246%
O=C(CCCN1C(=O)S/C(=C/C=C/c2ccccc2)C1=O)Nc1ccc(C(=O)O)cc1,–,inactive: -9.25%
NC(=O)CC(NC(=O)Cc1cccc2ccccc12)c1ccc(NCCOc2ccccc2)c([N+](=O)[O-])c1 (stereo not drawn),"inconclusive [inhibitor, partial curve]",–
Cc1ccc(N(CC(=O)NCC2CCCO2)C(=O)CCC(=O)Nc2ccccn2)cc1 (stereo not drawn),–,inactive: -7.13%
Cc1ccc(S(=O)(=O)c2ccc(-n3nc(C)cc3N)cc2)cc1,–,inactive: 6.2%
CCCCCCCCCCCCCCCC[n+]1ccccc1,active: 3.79 µM,–
O=C(CN1CCN(S(=O)(=O)c2ccccc2F)CC1)NC1CCCC1,–,inactive: 9.58%
CCN(CC(=O)NC(C)(C)C)C(=O)CCl,active: 11.7 µM,–
O=C(Nc1cccc(S(=O)(=O)N2CCCCC2)c1)C1CC(=O)N(Cc2ccco2)C1 (stereo not drawn),–,inactive: 2.09%
Cc1sc(NC(=O)CSc2nnc(CCNC(=O)c3cccs3)n2C)nc1-c1ccccc1,"inconclusive [inhibitor, single point]",–
O=C(c1ccco1)N1CCN(C(=O)c2cc(-c3ccccc3F)no2)CC1,–,inactive: 35.4%
O=C(O)c1ccc(S(=O)(=O)N2CCC(n3nnc4cc(C(F)(F)F)ccc43)CC2)cc1,–,inactive: -6.33%
Cc1cc(=O)[nH]c(SCC(=O)Nc2nc(-c3ccccc3)c(-c3ccccc3)o2)n1,–,inactive: 12.3%
Cn1c(-c2sc(=S)n(-c3ccccc3)c2N)nc2ccccc21,"inconclusive [inhibitor, partial curve, poor fit]",–
Cc1ccc(C(=O)N/C(=C/c2ccco2)C(=O)Nc2cccc(C(=O)O)c2)cc1,–,inactive: -7.64%
O=C(Nc1ncc2c(n1)-c1ccccc1CC2)c1cccs1,"inconclusive [inhibitor, single point]",–
O=C(NC1CCCCCC1)c1cc(S(=O)(=O)N2CCOCC2)ccc1N1CCCCC1,"inconclusive [inhibitor, partial curve, poor fit]",–
CCOC(=O)C(=Cc1ccc(-c2ccsc2C(=O)OC)o1)C(=O)OCC,"inconclusive [inhibitor, single point]",–
